In paper PMC6722706:
Results are given in words; binding and its absence hold for the method and conditions named. In cells and extracts the contact can be indirect. Some results given as binding are weak or reduced against the parent protein; the word gives no strength.

The chains behind the UniProt entries cited, without tags or fusion partners. Where a name states a change or a piece, a line headed by the entry shows the natural chain unless it says otherwise. A line that says so, or that is headed by a name, gives the form on record, which may keep a tag or linker.
UniProt P35372: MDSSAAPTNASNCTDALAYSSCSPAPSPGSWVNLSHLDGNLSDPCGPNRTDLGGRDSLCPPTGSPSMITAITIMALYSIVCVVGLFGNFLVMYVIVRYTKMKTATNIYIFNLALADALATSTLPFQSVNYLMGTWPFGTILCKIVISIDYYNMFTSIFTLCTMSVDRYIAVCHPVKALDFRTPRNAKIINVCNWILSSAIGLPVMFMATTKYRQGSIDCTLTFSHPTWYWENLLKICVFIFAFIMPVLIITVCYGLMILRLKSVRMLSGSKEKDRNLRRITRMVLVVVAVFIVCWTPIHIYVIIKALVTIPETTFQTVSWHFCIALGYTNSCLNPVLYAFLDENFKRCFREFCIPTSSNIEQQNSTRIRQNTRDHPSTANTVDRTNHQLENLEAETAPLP
UniProt P14416: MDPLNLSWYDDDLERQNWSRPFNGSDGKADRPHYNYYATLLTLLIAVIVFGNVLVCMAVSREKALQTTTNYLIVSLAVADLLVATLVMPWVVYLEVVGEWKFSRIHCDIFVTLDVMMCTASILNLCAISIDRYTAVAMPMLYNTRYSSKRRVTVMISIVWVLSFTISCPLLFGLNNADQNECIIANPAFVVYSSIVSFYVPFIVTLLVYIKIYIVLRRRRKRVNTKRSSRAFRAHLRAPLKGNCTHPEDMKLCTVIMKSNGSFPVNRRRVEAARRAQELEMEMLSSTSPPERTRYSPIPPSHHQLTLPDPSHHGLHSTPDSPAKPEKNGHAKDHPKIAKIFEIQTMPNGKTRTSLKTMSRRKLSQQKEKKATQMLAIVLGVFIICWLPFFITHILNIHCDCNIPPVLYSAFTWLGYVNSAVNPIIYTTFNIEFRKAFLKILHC
FLAG-D2SR (P14416, form named): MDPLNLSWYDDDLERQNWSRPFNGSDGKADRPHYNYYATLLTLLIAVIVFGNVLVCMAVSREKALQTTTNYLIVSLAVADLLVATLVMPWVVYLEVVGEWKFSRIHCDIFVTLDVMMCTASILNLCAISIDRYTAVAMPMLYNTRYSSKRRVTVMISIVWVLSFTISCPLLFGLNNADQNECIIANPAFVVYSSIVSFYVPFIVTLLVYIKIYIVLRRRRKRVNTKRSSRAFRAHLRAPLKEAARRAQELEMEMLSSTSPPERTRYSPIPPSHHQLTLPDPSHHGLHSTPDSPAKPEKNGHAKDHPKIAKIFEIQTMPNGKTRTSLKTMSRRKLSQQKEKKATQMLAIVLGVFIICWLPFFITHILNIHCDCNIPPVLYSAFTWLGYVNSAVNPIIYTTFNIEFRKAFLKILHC

How the values were obtained:
[1] = target: MOR-RLuc (UniProt P35372); assay: FRET or BRET; saturation BRET1 in living HEK 293T cells; fixed amount of RLuc donor plasmid, increasing amounts of YFP acceptor plasmid; 5 µM h-coelenterazine; ratio 530/480 nm, corrected for donor alone
[2] = target: D2LR-RLuc (UniProt P14416); assay: as above
[3] = target: HA-tagged D2LR (UniProt P14416); assay: condition: only lysates of cells transfected with the individual receptors alone, mixed after lysis; co-IP; control: lysates of cells transfected with the individual receptors alone were mixed and processed as per the co-IP protocol
[4] = target: HA-tagged D2LR (UniProt P14416); assay: co-IP; HEK 293T cells cotransfected with HA-D2LR (or FLAG-D2SR) and MOR-YFP; RIPA lysates (250 mM NaCl, 50 mM Tris/HCl pH 7.5, 1% NP-40, 0.1% SDS, 0.5% deoxycholic acid); IP with mouse anti-HA or anti-FLAG M2 and Protein A Trisacryl beads at 4 °C; blot with anti-GFP
[5] = target: FLAG-D2SR (UniProt P14416); assay: as above
[6] = target: D2LR-mCherry (UniProt P14416); assay: FRET or BRET; FRET in living HeLa cells in a plate reader; MOR-YFP donor, mCherry acceptor; ratio of donor-acceptor channel to donor-donor channel

For “D2LR-YFP (from UniProt P14416 1-443) (receptor)”, the binding [1] was “binds”.
For “MOR-YFP (in HEK 293T cells) (from UniProt P35372 1-400) (receptor)”, the binding [2] was “binds”, the binding [3] was “no binding” and the binding [4] was “binds”. The binding [5] was “binds”.
“MOR-YFP (in HeLa cells) (from UniProt P35372 1-400) (receptor)” was tested, and the binding [6] was “binds”.
